# Measured values as given in the supplement of paper PMC3334620.
# Whole data set: some 33,000 sequences, median “E-score (-0.5 to 0.5)” near -0.043, cut for the highest 2% near 0.37. The list shows a part of the results.
# Molecular target: T1, Upc2 (UniProt Q12151)
# T1 sequence: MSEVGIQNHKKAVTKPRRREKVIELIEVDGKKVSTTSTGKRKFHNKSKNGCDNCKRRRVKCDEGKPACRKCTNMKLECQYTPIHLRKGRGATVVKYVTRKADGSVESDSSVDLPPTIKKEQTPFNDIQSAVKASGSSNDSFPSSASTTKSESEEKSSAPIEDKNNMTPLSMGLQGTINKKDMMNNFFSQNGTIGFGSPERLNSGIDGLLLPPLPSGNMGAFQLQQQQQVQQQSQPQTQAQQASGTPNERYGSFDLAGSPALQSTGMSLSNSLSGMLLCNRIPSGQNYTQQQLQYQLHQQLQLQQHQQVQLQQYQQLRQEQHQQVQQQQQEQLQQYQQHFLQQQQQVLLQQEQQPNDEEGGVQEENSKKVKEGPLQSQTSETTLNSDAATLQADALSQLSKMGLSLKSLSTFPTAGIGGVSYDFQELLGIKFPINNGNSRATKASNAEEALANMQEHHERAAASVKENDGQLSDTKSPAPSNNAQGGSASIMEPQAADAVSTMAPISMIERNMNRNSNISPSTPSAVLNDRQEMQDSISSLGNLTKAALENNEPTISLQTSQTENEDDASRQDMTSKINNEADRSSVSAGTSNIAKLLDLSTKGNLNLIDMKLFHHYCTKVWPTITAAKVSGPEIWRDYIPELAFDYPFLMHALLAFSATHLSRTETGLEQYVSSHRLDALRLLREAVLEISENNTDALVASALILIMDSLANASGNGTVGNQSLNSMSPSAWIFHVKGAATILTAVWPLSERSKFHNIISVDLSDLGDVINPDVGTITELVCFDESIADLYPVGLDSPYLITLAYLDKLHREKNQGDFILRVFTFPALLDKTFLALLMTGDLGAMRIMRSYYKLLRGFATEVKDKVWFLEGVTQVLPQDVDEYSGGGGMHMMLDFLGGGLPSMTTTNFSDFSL
# Experiment: PBM E-score (8-mer binding enrichment) (E-score (-0.5 to 0.5)); higher = stronger / more preferred TF binding; most listed sequences are background and not binding sites
# Conditions: protein concentration: 200 nM; construct: GST-full length
# Summary of the method: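 Masliner-normalised scans of fluorescent anti-GST signal were the basis for scoring. That signal came from GST-tagged yeast transcription factors applied at about 100-200 nM to double-stranded universal all-10-mer Agilent arrays on fresh or once-stripped slides. Each ungapped eight-base word, pooled with its reverse complement, received an E-score from the Universal PBM Analysis Suite.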
row,Sequence,PBM E-score
1,AAGAAAAA,-0.145
2,ATGACCTG,-0.0326
3,ACGCACCG,0.174
4,CGTTGCGA,0.177
5,CTACTGAG,-0.133
6,TCCAAAGA,-0.108
7,CCTCAATA,-0.253
8,ATTACTGA,-0.0354
9,AAGATGTG,0.0164
10,ACGCCCAC,-0.0667
11,GGACTACC,-0.214
12,GGTTGTGA,0.0133
13,TTAGACAA,0.0412
14,GGCGTCTA,-0.152
15,CGCTCCGC,0.0891
16,CCAGCACA,-0.33
17,TAGGCTAA,-0.052
18,GTAGTGAA,-0.143
19,GAACAAAA,0.0641
20,TCTTTGAA,0.0294
21,CACTATCA,-0.118
22,ATTTCTAG,-0.083
23,ACCCAGGA,-0.0144
24,CCCACATA,0.0708
25,CAGTTCAA,-0.141

row,Sequence,PBM E-score
1,AACCAAAA,-0.119
2,ATCCTTTA,-0.0362
3,ATTTATGA,-0.114
4,ACGGTTAA,0.176
5,ATGATCGG,-0.0909
6,GTGTATGA,-0.0258
7,AGAGGTAT,0.119
8,CACGCGAA,0.0534
9,CACAAGTG,-0.151
10,AATCTGCA,-0.254
11,ACAGGCGC,0.112
12,AGCAGAAG,-0.255
13,GAAGGATA,-0.254
14,AAATTATC,0.168
15,CGTTTGAC,0.363
16,GACGTAAC,0.0258
17,GTGTAGGA,-0.179
18,AGATTGAC,-0.0535
19,CGAGTCAC,0.0984
20,CCGCGAGA,-0.027
21,GAGCGCAA,-0.0567
22,TCGTATCA,0.463
23,GCGGGTTA,0.134
24,AATCCTAC,-0.00843
25,CATCAAGC,-0.0919

row,Sequence,PBM E-score
1,AGTCCAGC,-0.11
2,ATTCGGCA,0.0687
3,CCATAACA,-0.0637
4,AGTCTTAA,-0.185
5,ATTTCTAA,-0.105
6,AGCGCGAC,-0.115
7,CCCAGAAC,0.0405
8,ATTGGGTC,-0.155
9,CTAGCTAA,0.0343
10,ACCGCTCG,0.123
11,GTTGAGTA,0.0018
12,CGGAGTTC,0.0843
13,AATTGTGA,0.0573
14,AGTCCCAA,-0.127
15,CGATTCCA,-0.0418
16,AACATTCC,-0.255
17,AACCTTTG,-0.165
18,GGCCGCCC,-0.272
19,GGTTAACC,-0.0722
20,AAGCGTCA,0.0424
21,ATGAAACC,-0.157
22,CGAGGTTC,0.178
23,AGGTTACC,0.0246
24,TAAGTCTA,-0.196
25,GCACTGAA,-0.229

row,Sequence,PBM E-score
1,ATCAGCTC,-0.112
2,ATGTAGTA,-0.00889
3,CGGCCCCC,-0.2
4,CTTTAGGA,-0.167
5,TGTTGAAA,0.0958
6,CTAACCCA,-0.27
7,TGTGAGAA,-0.0856
8,TCCACCCA,-0.276
9,GAGAGTCA,-0.178
10,ACGGGATC,0.253
11,CAGCACGA,0.0496
12,GAACGGCA,0.27
13,GCCGCTAC,0.00233
14,AGTATGTG,-0.00679
15,CACGTAAC,0.039
16,GGGATTTA,-0.0717
17,ATGAGCTA,-0.136
18,AAGCTGTG,-0.0512
19,ACCATCAT,-0.0049
20,GTTAAATA,0.189
21,ACGGTACC,0.0672
22,ATGTACAA,-0.037
23,CGCTCCTC,0.0179
24,TAACCAGA,0.0704
25,ACTGCCAT,0.0855

row,Sequence,PBM E-score
1,ACAATATA,0.191
2,CTATGCAA,-0.145
3,CTCCAGTA,-0.0104
4,GTCGCAAA,0.224
5,ATCCTCTC,-0.0944
6,GGGAGGCA,-0.149
7,ACAAAGAT,0.088
8,AGGCTGTA,-0.0231
9,CGTACCCC,0.391
10,CGTTCCGA,0.361
11,ACCCTACG,-0.0494
12,AGTCATAC,0.182
13,ACCGGGAT,-0.12
14,GCACATCC,-0.149
15,CCACAACA,-0.0935
16,ACATGGAA,-0.0591
17,ACACCGGT,-0.0421
18,GAGTCACA,0.0539
19,CGACCAGC,-0.0299
20,ACATTATC,0.077
21,AATTCCTA,0.00142
22,CTAGGCAG,-0.206
23,TTCCCGAA,0.14
24,TCCTACGA,0.256
25,AAGCTCTC,-0.171

row,Sequence,PBM E-score
1,AGTGGGGA,-0.152
2,ATATATAA,0.141
3,AAATTGAC,0.0644
4,CCTTTTAG,-0.0261
5,CCCGTATA,0.479
6,ATGTCTCA,-0.192
7,ATATTTTG,-0.102
8,ACTGTGTA,0.0766
9,AGTTACTC,0.142
10,ACGCTATA,0.257
11,GCTGTGTA,0.00184
12,CTCTAAGC,0.0282
13,ACAAAGAC,0.0593
14,CATAGGGA,-0.434
15,CCCCCTCA,-0.388
16,ATGCGAGC,0.304
17,ACTCTGCT,-0.118
18,CCACACTC,-0.0668
19,GCACGTAC,0.227
20,ACACTTTC,-0.044
21,ATACAAAA,0.0979
22,CATCAGTC,-0.123
23,ACCTAGGC,-0.352
24,ACCCCAAC,-0.236
25,ACGCAGTG,0.0743

row,Sequence,PBM E-score
1,ACGTGGAT,0.162
2,CCGAATAG,0.00943
3,AGATTGCG,0.0197
4,GCGCGCTA,0.151
5,GTATCTCA,0.101
6,CACCGTCA,-0.0762
7,GGTCGAAC,0.00809
8,AAGGTCGA,-0.00412
9,GGTAGTAA,0.0105
10,CCACAACG,0.105
11,TATCCGGA,0.0472
12,GCCGTAAA,0.385
13,CCGGGGCG,-0.0612
14,CAATCGTG,-0.153
15,CATCCACG,-0.102
16,GCCATGCA,-0.206
17,ATTCTTTA,0.157
18,CAGAGCTG,-0.317
19,AATCAGAC,-0.0696
20,CTGGGAAA,-0.185
21,AGTCATAA,0.0313
22,GGAGAAAA,-0.0493
23,AGATGACA,-0.218
24,TCATCTAA,0.0297
25,TCAGAAGA,-0.0991

row,Sequence,PBM E-score
1,GTCTAGTA,-2e-05
2,ATGGCTGC,0.0303
3,ACTAGTTA,0.0543
4,ACGGAACG,0.359
5,CCTAATAC,-0.066
6,CAGTGGCC,-0.231
7,CCCCTTGC,-0.172
8,CAAATAGC,-0.0463
9,CTCCTGTA,-0.02
10,ACGACCGC,0.359
11,CTTATAAA,0.125
12,CGCAAACA,0.0866
13,AGCTTCAT,-0.0456
14,CCATATCA,-0.0248
15,CGACCCGC,0.0304
16,ACGCCTGG,-0.026
17,GTTTTTTA,0.054
18,CGGGCAAC,-0.0496
19,GTACCACA,0.178
20,CATAATAG,-0.071
21,AACTTTAC,0.0923
22,ATGCACCA,-0.188
23,AAGCGAAT,0.298
24,CCGGTAGG,-0.188
25,GCTTCTCA,-0.146

row,Sequence,PBM E-score
1,CACTCGGC,0.0986
2,AGTCTTTC,-0.0324
3,CCTCGGGA,0.0787
4,AACTACTC,-0.0349
5,ATAAATGA,0.0703
6,CGCGTCCA,0.109
7,GGATACCC,0.0221
8,CGCCTTTC,0.014
9,CCGAGTCC,-0.0483
10,AAGATGCA,-0.17
11,TAATTGAA,-0.138
12,AGACGAAA,0.196
13,CCAGCGCC,0.0578
14,AATCCCAT,-0.229
15,GATCCCGC,-0.037
16,CGAGATCG,0.207
17,GCGGCCTA,-0.197
18,AACAAGAG,-0.113
19,CATGCCAC,-0.154
